This note sets out measurements from PMC4439124, “Hairy/Enhancer-of-Split MEGANE and Proneural MASH1 Factors Cooperate Synergistically in Midbrain GABAergic Neurogenesis” (PLoS ONE, 2015).

Results are given in words; binding and its absence hold for the method and conditions named. For part of these data: Binding seen in cells or lysates may run through a third protein. Some entries that bind do so weakly or less than the wild type. For part of these data: Sequences can lack the tags named with a protein.

For assay [1], the target named is T1, MGN (MEGANE), yeast two-hybrid fusion (mouse, UniProt Q7TS99 1-240).
T1 construct: The two Gal4 domains are alternatives: one fusion as bait (BD), another as prey (AD); also called Helt; BD-MGN; source: yeast two-hybrid fusion
T1 sequence (looked up): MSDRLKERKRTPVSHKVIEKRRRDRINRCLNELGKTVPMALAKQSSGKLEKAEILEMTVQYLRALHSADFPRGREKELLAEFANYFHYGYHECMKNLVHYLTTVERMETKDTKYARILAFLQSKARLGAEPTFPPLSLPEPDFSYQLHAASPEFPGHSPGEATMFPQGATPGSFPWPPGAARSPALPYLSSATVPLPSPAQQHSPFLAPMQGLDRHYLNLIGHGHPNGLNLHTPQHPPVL
Put plainly: two-hybrid; 2-protein interaction assay in yeast: pGBKT7 baits in AH109 and pGADT7 preys in Y187, mated, diploids plated on SD/Ade- His- Leu- Trp-.

The target in assay [2] is T2, MGN, epitope-tagged fusion protein in HEK293 cells (mouse) (UniProt Q7TS99).
T2 sequence: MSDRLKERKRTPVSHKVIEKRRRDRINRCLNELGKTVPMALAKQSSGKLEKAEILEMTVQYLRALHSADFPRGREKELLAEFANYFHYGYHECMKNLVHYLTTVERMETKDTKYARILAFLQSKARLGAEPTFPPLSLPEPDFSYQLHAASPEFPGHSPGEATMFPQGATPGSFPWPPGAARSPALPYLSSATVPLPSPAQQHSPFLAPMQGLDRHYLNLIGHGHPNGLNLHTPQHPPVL
Put plainly: co-IP; HEK293 cells transiently co-transfected with N-terminal FLAG- and N-terminal myc-tagged proteins (pcDNA3.1), 24-48 h, Protein G immunoprecipitation kit, western blot with anti-c-myc and anti-FLAG; anti-HA as negative control.

Assay [3] deals with T3, endogenous MASH1 (mouse (endogenous in E12.5 embryo midbrain)) (UniProt Q02067).
T3 sequence: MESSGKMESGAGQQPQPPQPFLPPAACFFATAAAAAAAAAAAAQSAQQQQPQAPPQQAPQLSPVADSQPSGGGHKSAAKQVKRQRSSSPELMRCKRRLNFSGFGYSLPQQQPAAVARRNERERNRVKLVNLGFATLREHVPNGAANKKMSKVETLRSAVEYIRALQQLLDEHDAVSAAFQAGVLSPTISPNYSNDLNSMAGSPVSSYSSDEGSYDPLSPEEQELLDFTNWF
Put plainly: co-IP; endogenous proteins, dMB and vMB of E12.5 wild-type mouse embryos homogenised in RIPA buffer with protease inhibitors, DNases and RNases; MASH1 or MGN antibodies cross-linked to magnetic G-beads, overnight, wash 120 mM NaCl, elution 100 mM glycine-HCl pH 2.5; western blot.

Assay [4] has as its target T1, MGN (MEGANE), yeast two-hybrid fusion. Put plainly: two-hybrid; quantitative β-galactosidase assay on liquid cultures (X-gal; in parallel ONPG, absorbance at 420 nm), five independent transformants per pair, normalised against cell density and dilution.
Assay [5] has the same target. Put plainly: two-hybrid; growth of pair-wise yeast under increased stringency: 3-AT added to the media (5 mM and 15 mM plates, increasing concentrations).
Assay [6] shares this target. Put plainly: two-hybrid; library screen (Matchmaker GAL4): BD-MGN bait against a cDNA library of E9-E10.5 mouse embryos in pGADT7, AH109 co-transformed, growth on SD/Ade- His- Leu- Trp- with 3 mM 3-AT at 30°C, colony-lift β-galactosidase assay; positives confirmed by α/a mating with the MGN bait.
The target in assay [7] is T4, MASH1, yeast two-hybrid fusion (mouse) (UniProt Q02067).
T4 sequence: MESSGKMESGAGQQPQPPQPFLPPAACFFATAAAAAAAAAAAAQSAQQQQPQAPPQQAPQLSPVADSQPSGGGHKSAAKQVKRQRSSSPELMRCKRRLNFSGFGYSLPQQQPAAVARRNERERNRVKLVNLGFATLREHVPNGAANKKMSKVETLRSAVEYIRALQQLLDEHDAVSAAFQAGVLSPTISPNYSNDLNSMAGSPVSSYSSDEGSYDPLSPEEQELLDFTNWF
Put plainly: two-hybrid; quantitative β-galactosidase assay on liquid cultures (X-gal; in parallel ONPG, absorbance at 420 nm), five independent transformants per pair, normalised against cell density and dilution.

The target of assay [8] is T4, MASH1, yeast two-hybrid fusion (mouse). Put plainly: two-hybrid; growth of pair-wise yeast under increased stringency: 3-AT added to the media (5 mM and 15 mM plates, increasing concentrations).
Assay [9] addresses T5, MGN expressed in mouse embryonic stem cells (mouse) (UniProt Q7TS99).
T5 sequence: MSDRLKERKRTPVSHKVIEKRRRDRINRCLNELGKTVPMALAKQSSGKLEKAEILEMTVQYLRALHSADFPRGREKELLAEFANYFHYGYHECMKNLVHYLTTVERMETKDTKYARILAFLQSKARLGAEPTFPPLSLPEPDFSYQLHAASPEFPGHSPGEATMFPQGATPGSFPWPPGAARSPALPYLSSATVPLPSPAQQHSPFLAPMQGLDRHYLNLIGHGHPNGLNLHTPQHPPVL
Put plainly: co-IP; lysates of mouse ES cells electroporated with pCDNA3-1 Mgn and/or Mash1, extracted 24-48 h later; control for the Co-IP from brain tissue.

Assay [10] has as its target T6, endogenous MGN (mouse (endogenous in E12.5 embryo midbrain)) (UniProt Q7TS99).
T6 sequence: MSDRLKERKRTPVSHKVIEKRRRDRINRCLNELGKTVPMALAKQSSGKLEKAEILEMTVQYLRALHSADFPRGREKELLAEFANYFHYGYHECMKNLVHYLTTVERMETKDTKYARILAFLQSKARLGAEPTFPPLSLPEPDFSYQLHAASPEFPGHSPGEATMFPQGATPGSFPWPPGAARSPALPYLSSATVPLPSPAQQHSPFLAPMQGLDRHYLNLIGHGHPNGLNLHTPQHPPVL
Put plainly: co-IP; endogenous proteins, dMB and vMB of E12.5 wild-type mouse embryos homogenised in RIPA buffer with protease inhibitors, DNases and RNases; MASH1 or MGN antibodies cross-linked to magnetic G-beads, overnight, wash 120 mM NaCl, elution 100 mM glycine-HCl pH 2.5; western blot.

B1: NGN3, yeast two-hybrid fusion (protein, UniProt P70661 1-214)
chain: MAPHPLDALTIQVSPETQQPFPGASDHEVLSSNSTPPSPTLIPRDCSEAEVGDCRGTSRKLRARRGGRNRPKSELALSKQRRSRRKKANDRERNRMHNLNSALDALRGVLPTFPDDAKLTKIETLRFAHNYIWALTQTLRIADHSFYGPEPPVPCGELGSPGGGSNGDWGSIYSPVSQAGNLSPTASLEEFPGLQVPSSPSYLLPGALVFSDFL
As to B1, the binding entry in assay [1] is on record as “no binding”.

B2: NGN3 in mammalian cell culture (Co-IP) (protein, UniProt P70661 1-214)
chain: MAPHPLDALTIQVSPETQQPFPGASDHEVLSSNSTPPSPTLIPRDCSEAEVGDCRGTSRKLRARRGGRNRPKSELALSKQRRSRRKKANDRERNRMHNLNSALDALRGVLPTFPDDAKLTKIETLRFAHNYIWALTQTLRIADHSFYGPEPPVPCGELGSPGGGSNGDWGSIYSPVSQAGNLSPTASLEEFPGLQVPSSPSYLLPGALVFSDFL
For B2, the binding entry in [2] is on record as “no binding”.

B3: endogenous MGN (protein, UniProt Q7TS99 1-240)
chain: MSDRLKERKRTPVSHKVIEKRRRDRINRCLNELGKTVPMALAKQSSGKLEKAEILEMTVQYLRALHSADFPRGREKELLAEFANYFHYGYHECMKNLVHYLTTVERMETKDTKYARILAFLQSKARLGAEPTFPPLSLPEPDFSYQLHAASPEFPGHSPGEATMFPQGATPGSFPWPPGAARSPALPYLSSATVPLPSPAQQHSPFLAPMQGLDRHYLNLIGHGHPNGLNLHTPQHPPVL
With B3, the binding entry in [3] is “binds”.

B4: MGN, epitope-tagged fusion protein in HEK293 cells (protein, UniProt Q7TS99 1-240)
chain: MSDRLKERKRTPVSHKVIEKRRRDRINRCLNELGKTVPMALAKQSSGKLEKAEILEMTVQYLRALHSADFPRGREKELLAEFANYFHYGYHECMKNLVHYLTTVERMETKDTKYARILAFLQSKARLGAEPTFPPLSLPEPDFSYQLHAASPEFPGHSPGEATMFPQGATPGSFPWPPGAARSPALPYLSSATVPLPSPAQQHSPFLAPMQGLDRHYLNLIGHGHPNGLNLHTPQHPPVL
Turning to B4, the binding entry in assay [2] is recorded as “binds”.

B5: MGN (MEGANE), yeast two-hybrid fusion (protein, UniProt Q7TS99 1-240)
chain: MSDRLKERKRTPVSHKVIEKRRRDRINRCLNELGKTVPMALAKQSSGKLEKAEILEMTVQYLRALHSADFPRGREKELLAEFANYFHYGYHECMKNLVHYLTTVERMETKDTKYARILAFLQSKARLGAEPTFPPLSLPEPDFSYQLHAASPEFPGHSPGEATMFPQGATPGSFPWPPGAARSPALPYLSSATVPLPSPAQQHSPFLAPMQGLDRHYLNLIGHGHPNGLNLHTPQHPPVL
For B5, the binding entry in assay [4] is “binds”; in [5], “no binding (condition: in higher levels of 3-AT)”; in assay [6], “binds”; in assay [1] it was “binds”.

B6: MASH1, yeast two-hybrid fusion (natural protein, mouse, UniProt Q02067 1-231, looked up)
chain: MESSGKMESGAGQQPQPPQPFLPPAACFFATAAAAAAAAAAAAQSAQQQQPQAPPQQAPQLSPVADSQPSGGGHKSAAKQVKRQRSSSPELMRCKRRLNFSGFGYSLPQQQPAAVARRNERERNRVKLVNLGFATLREHVPNGAANKKMSKVETLRSAVEYIRALQQLLDEHDAVSAAFQAGVLSPTISPNYSNDLNSMAGSPVSSYSSDEGSYDPLSPEEQELLDFTNWF
notes: The two Gal4 domains are alternatives: one fusion as bait (BD), another as prey (AD); also called Ascl1; MASH1-AD; source: yeast two-hybrid fusion
As for B6, the binding entry in assay [7] was “binds”; in assay [8], “no binding (condition: in higher levels of 3-AT)”; in assay [5], “binds”; in assay [6], “binds”; in assay [1] it was “binds”.

B7: MASH1, epitope-tagged fusion protein in HEK293 cells (protein, UniProt Q02067 1-231)
chain: MESSGKMESGAGQQPQPPQPFLPPAACFFATAAAAAAAAAAAAQSAQQQQPQAPPQQAPQLSPVADSQPSGGGHKSAAKQVKRQRSSSPELMRCKRRLNFSGFGYSLPQQQPAAVARRNERERNRVKLVNLGFATLREHVPNGAANKKMSKVETLRSAVEYIRALQQLLDEHDAVSAAFQAGVLSPTISPNYSNDLNSMAGSPVSSYSSDEGSYDPLSPEEQELLDFTNWF
Turning to B7, in assay [2], the binding result is reported as “binds”.

B8: MASH1 expressed in mouse embryonic stem cells (protein, UniProt Q02067 1-231)
chain: MESSGKMESGAGQQPQPPQPFLPPAACFFATAAAAAAAAAAAAQSAQQQQPQAPPQQAPQLSPVADSQPSGGGHKSAAKQVKRQRSSSPELMRCKRRLNFSGFGYSLPQQQPAAVARRNERERNRVKLVNLGFATLREHVPNGAANKKMSKVETLRSAVEYIRALQQLLDEHDAVSAAFQAGVLSPTISPNYSNDLNSMAGSPVSSYSSDEGSYDPLSPEEQELLDFTNWF
As to B8, the binding result in assay [9] is “binds”.

B9: endogenous MASH1 (protein, UniProt Q02067 1-231)
chain: MESSGKMESGAGQQPQPPQPFLPPAACFFATAAAAAAAAAAAAQSAQQQQPQAPPQQAPQLSPVADSQPSGGGHKSAAKQVKRQRSSSPELMRCKRRLNFSGFGYSLPQQQPAAVARRNERERNRVKLVNLGFATLREHVPNGAANKKMSKVETLRSAVEYIRALQQLLDEHDAVSAAFQAGVLSPTISPNYSNDLNSMAGSPVSSYSSDEGSYDPLSPEEQELLDFTNWF
As to B9, in assay [10], the binding result is “binds”.

B10: NGN1, yeast two-hybrid fusion (protein, UniProt P70660 1-244)
chain: MPAPLETCISDLDCSSSNSSSDLSSFLTDEEDCARLQPLASTSGLSVPARRSAPALSGASNVPGAQDEEQERRRRRGRARVRSEALLHSLRRSRRVKANDRERNRMHNLNAALDALRSVLPSFPDDTKLTKIETLRFAYNYIWALAETLRLADQGLPGGSARERLLPPQCVPCLPGPPSPASDTESWGSGAAASPCATVASPLSDPSSPSASEDFTYGPGDPLFSFPGLPKDLLHTTPCFIPYH
As for B10, the binding result in assay [1] is given as “no binding”.

B11: NGN1 in mammalian cell culture (Co-IP) (protein, UniProt P70660 1-244)
chain: MPAPLETCISDLDCSSSNSSSDLSSFLTDEEDCARLQPLASTSGLSVPARRSAPALSGASNVPGAQDEEQERRRRRGRARVRSEALLHSLRRSRRVKANDRERNRMHNLNAALDALRSVLPSFPDDTKLTKIETLRFAYNYIWALAETLRLADQGLPGGSARERLLPPQCVPCLPGPPSPASDTESWGSGAAASPCATVASPLSDPSSPSASEDFTYGPGDPLFSFPGLPKDLLHTTPCFIPYH
Regarding B11, the binding entry in assay [2] was “no binding”.
